Data reported in the supplement of paper PMC9446081.
The whole screen tested about 39,000 compounds, of which about 220 (0.56%) showed activity. The list shows a part of the results.

What follows are compounds tested on Escherichia coli K-12 BW25113 (assay: relative growth (OD600 normalised to plate interquartile mean) (fraction); higher = less growth inhibition, active = 0.2 or less). Conditions: 50 µM; LB; incubation time: overnight (16-24 h).
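Also: static incubation at 37 °C against the wild-type strain, values averaged over two biological replicates.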

Compound	relative growth
C[C@@H]1CCCCO[C@H](CN(C)C(=O)Nc2ccc(C(F)(F)F)cc2)[C@H](C)CN([C@H](C)CO)C(=O)c2cc(NS(=O)(=O)c3cccs3)ccc2O1	inactive: 1.01
COc1cccc(CN(C)C[C@@H]2OCc3ccccc3-c3c(n(C)c4ccccc34)C(=O)N([C@@H](C)CO)C[C@H]2C)c1	inactive: 1.01
CC=Cc1ccc2n(c1=O)C[C@@H]1[C@@H](CO)[C@H](C(=O)NCC)[C@H]2N1S(=O)(=O)c1cn(C)cn1	inactive: 0.971
CC(C)NC(=O)Nc1ccc2c(c1)C(=O)N([C@H](C)CO)C[C@H](C)[C@H](CN(C)C(=O)Nc1ccc(C(F)(F)F)cc1)OCCCC[C@H](C)O2	inactive: 0.999
O=C(N[C@@H](c1ccccc1)c1ccc2ccccc2n1)C1CCN(CCOc2ccc(Cl)cc2Cl)CC1	inactive: 0.992
C[C@@H]1CN([C@@H](C)CO)C(=O)c2cc(NC(=O)Cc3ccccc3)ccc2O[C@@H]1CN(C)C(=O)Nc1cccc2ccccc12	inactive: 1.01
CC[C@H]1OC(=O)[C@H](C)[C@@H](O[C@H]2C[C@@](C)(OC)[C@@H](O)[C@H](C)O2)[C@H](C)[C@@H](O[C@@H]2O[C@H](C)C[C@H](N(C)C)[C@H]2O)[C@](C)(O)C[C@@H](C)[C@@H]2N[C@@H](COCCOC)O[C@H]([C@H]2C)[C@]1(C)O	inactive: 0.469
Cc1cc(=O)n2c3ccccc3n(C[C@@H](O)CN3CCN(CCO)CC3)c2c1C#N	inactive: 0.996
CO[C@H]1CN(C)C(=O)c2ccc(NS(=O)(=O)CC(F)(F)F)cc2OC[C@H](C)N(Cc2nccs2)C[C@H]1C	inactive: 0.987
C[C@@H]1CN([C@@H](C)CO)C(=O)c2cccc(NC(=O)c3ccc(-c4nccs4)cc3)c2O[C@@H]1CN(C)Cc1ccc(C(F)(F)F)cc1	inactive: 0.975
COC(=O)C[C@H]1CC[C@H]2[C@@H](COc3ccc(NS(=O)(=O)c4ccccc4Cl)cc3C(=O)N2C)O1	inactive: 0.985
COC(=O)C1=CO[C@@H](O[C@@H]2O[C@H](CO)[C@@H](O)[C@H](O)[C@H]2O)[C@@H]2[C@@H](CO)C=C[C@H]12	inactive: 1.01
C[C@H]1CN([C@@H](C)CO)C(=O)c2cccc(NC(=O)NC3CCCCC3)c2O[C@H]1CN(C)Cc1ccc(C(=O)Nc2ccccc2N)cc1	inactive: 1.01
C[C@@H]1CN([C@@H](C)CO)C(=O)c2cc(NC(=O)Nc3ccc(C(F)(F)F)cc3)ccc2O[C@@H](C)CCCCO[C@H]1CN(C)CC1CCCCC1	inactive: 0.985
C[C@H]1CN([C@@H](C)CO)C(=O)Cc2cc(NS(=O)(=O)c3cn(C)cn3)ccc2O[C@H]1CN(C)Cc1ccccc1	inactive: 0.994
C[C@@H]1CN([C@@H](C)CO)C(=O)c2cccc(NC(=O)Nc3ccc(F)cc3)c2O[C@@H]1CN(C)C(=O)Nc1cccc2ccccc12	inactive: 1.03
CS(=O)(=O)N1[C@@H]2Cn3c(ccc(-c4cccc(F)c4)c3=O)[C@H]1[C@@H](C(=O)N1CCOCC1)[C@@H]2CO	inactive: 0.992
O=C(NCc1ccccc1)OCCO	inactive: 1.08

Compound	relative growth
COCC(=O)N1C[C@@H](C)[C@@H](OC)CN(C)C(=O)c2ccc(NC(=O)Nc3ccccc3)cc2OC[C@@H]1C	inactive: 0.982
C[C@@H]1CN([C@@H](C)CO)C(=O)c2cc(NC(=O)CCCN(C)C)ccc2O[C@H]1CN(C)Cc1ccc2c(c1)OCO2	inactive: 0.956
C[C@@H]1CCCCO[C@@H](CN(C)C(=O)c2ccccc2)[C@H](C)CN([C@H](C)CO)C(=O)c2cc(NC(=O)C3CCCCC3)ccc2O1	inactive: 1.02
COc1ccc(NC(=O)N(C)C[C@H]2Oc3ccc(NS(=O)(=O)c4cn(C)cn4)cc3CC(=O)N([C@H](C)CO)C[C@@H]2C)cc1	inactive: 1.02
C[C@H]1CN([C@@H](C)CO)C(=O)c2cc(C3=CCCC3)cnc2O[C@@H]1CN(C)C(=O)c1ccc2c(c1)OCO2	inactive: 0.97
CC1CC=CC=CC=CC=CC(OC2OC(C)C(O)C(N)C2O)CC2OC(O)(CC(O)CC3OC3C=CC(=O)O1)CC(O)C2C(=O)O (stereo unspecified)	inactive: 1.14
C[C@@H](NC=C1C(=O)OC(C)(C)OC1=O)C(=O)O	inactive: 0.963
CCCNC(=O)N[C@@H]1CC[C@H](CC(=O)N2CCN(C)CC2)O[C@H]1CO	inactive: 1.02
C[C@H]1CCCCO[C@@H](CN(C)C(=O)Nc2ccc3c(c2)OCO3)[C@@H](C)CN([C@@H](C)CO)C(=O)c2cc(NC(=O)NC3CCCCC3)ccc2O1	inactive: 1.02
C[C@@H]1CN([C@@H](C)CO)C(=O)Cc2cc(NS(=O)(=O)c3ccc(Cl)cc3)ccc2O[C@@H]1CN(C)Cc1ccc(C(=O)Nc2ccccc2N)cc1	inactive: 0.853
C[C@@H]1CCCCO[C@H](CN(C)C(=O)Cc2ccccc2)[C@@H](C)CN([C@H](C)CO)C(=O)c2cc(NC(=O)Nc3ccc(C(F)(F)F)cc3)ccc2O1	inactive: 0.997
C[C@H]1CN([C@@H](C)CO)C(=O)c2cccc(NS(=O)(=O)c3ccccc3)c2O[C@@H]1CN(C)Cc1ccncc1	inactive: 0.993
C[C@H]1CN([C@@H](C)CO)C(=O)c2ccccc2-c2ccccc2CO[C@@H]1CN(C)S(=O)(=O)c1ccc(C(F)(F)F)cc1	inactive: 1.01
C[C@@H]1CCCCO[C@@H](CN(C)S(=O)(=O)c2ccc(F)cc2)[C@H](C)CN([C@H](C)CO)C(=O)c2cc(NS(C)(=O)=O)ccc2O1	inactive: 1.03
COc1ccc(S(=O)(=O)N(C)C[C@H]2Oc3ncc(C#CC4(O)CCCC4)cc3C(=O)N([C@@H](C)CO)C[C@@H]2C)cc1	inactive: 0.982
Cc1cc2c(cc1C)CSC(c1ccccc1)SC2	inactive: 0.992
C[C@@H]1CN([C@@H](C)CO)C(=O)CCCn2nncc2CO[C@@H]1CN(C)S(=O)(=O)c1ccc(-c2ccccc2)cc1	inactive: 1.01
O=C(C[C@@H]1C=C[C@@H](NC(=O)C2CCC2)[C@@H](CO)O1)NCCCN1CCOCC1	inactive: 0.993
